According to US12269859B2, “Synthetic immune receptors and methods of use thereof” (Angeles Therapeutics, Inc., priority 2016, dated 2025):

System: target antigen-expressing cell line
Experiment: Jurkat NFAT-GFP assay, coculture with target cell lines expressing the respective target antigen (summary Table 10A)
Type: cell-based, human
Parameters: key: The signs +/−, +, 2+ etc. after the name of the cell lines indicate the relative degree of positivity on the Jurkat-NFAT-GFP assay as measured by the % GFP positive cells; +: relative degree of positivity on the Jurkat-NFAT-GFP assay as measured by the % GFP positive cells; 2+: relative degree of positivity on the Jurkat-NFAT-GFP assay as measured by the % GFP positive cells

B1: 111815-B05 (protein)
chain: MALPVTALLLPLALLLHAARPDEFVDNKFNKERYSAYYEIWQLPNLNVRQKAAFIGSLQDDPSQSANLLAEAKKLNDAQAPKLELEGKPIPNPLLGLDSTGSGEDLKNVFPPEVAVFEPSEAEISHTQKATLVCLATGFYPDHVELSWWVNGKEVHSGVCTDPQPLKEQPALNDSRYCLSSRLRVSATFWQNPRNHFRCQVQFYGLSENDEWTQDRAKPVTQIVSAEAWGRADCGFTSESYQQGVLSATILYEILLGKATLYAVLVSALVLMAMVKRKDSRGRAKRSGSGATNFSLLKQAGDVEENPGPTSMDWIWRILFLVGAATGAHSFEYAKEMRNAYWEIALLPNLTNQQKRAPIRKLYDDPSQSSELLSEAKKLNDSQTREQKLISEEDGSGIQNPDPAVYQLRDSKSSDKSVCLFTDFDSQTNVSQSKDSDVYITDKCVLDMRSMDFKSNSAVAWSNKSDFACANAFNNSIIPEDTFFPSPESSCDVKLVEKSFETDTNLNFQNLSVIGFRILLLKVAGFNLLMTLRLWSSRAKRSGSGVKQTLNFDLLKLAGDVESNPGPSRGHMTEYKPTVRLATRDDVPRAVRTLAAAFADYPATRHTVDPDRHIERVTELQELFLTRVGLDIGKVWVADDGAAVAVWTTPESVEAGAVFAEIGPRMAELSGSRLAAQQQMEGLLAPHRPKEPAWFLATVGVSPDHQGKGLGSAVVLPGVEAAERAGVPAFLETSAPRNLPFYERLGFTVTADVEVPEGPRTWCMTRKPGA
modifications: Polynucleotide encoding a Synthetic Immune Receptor (SIR)
- NFAT-GFP ASSAY Positive Cell lines (coculture with LoVo cells): LoVo (+), OVCAR3
- NFAT-GFP ASSAY Positive Cell lines (coculture with OVCAR3 (also printed 0VCAR3) cells): (+)
